Data: the RNAGym collection of RNA variant scans (doi:10.1093/nar/gkz1192)
The source gives no read counts; variants with many changes may rest on few reads.

B1: CPEB3 Ribozyme (parent)
chain: UAACAGGGGGCCACAGCAGAAGCGUUCACGUCGCAGCCCCUGUCAGAUUCUGGUGAAUCUGCGAAUUCUGCUGUAUAUCUC

Variants of: B1
Assay: self-cleavage, relative activity (ratio to wild type); higher = more cleavage; in vitro, sequencing
Summary of the method: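 After error-prone PCR and barcoding, CPEB3 ribozyme mutant libraries were transcribed with T7 RNA polymerase at 37°C for 5 hours, then given 15 min with DNase I before an EDTA stop, and they cleaved during both steps. Reverse transcription with template switching preceded Illumina sequencing. Relative activity divides a variant's cleaved/total read fraction by the unmutated ribozyme's. At least 5 reads were required per variant, and three batches were averaged.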

| Variant | self-cleavage |
| --- | --- |
| C12U G19U U51A U72A | 0.19 |
| A13G A18U U26C G36A U51C | 0.15 |
| C12U U25C C32A A57G U66C U72A | 0.04 |
| A13G A20G A28G A45U U51G G61U C79U | 0 |
| A13G A15G U58A | 0.15 |
| A13C U25C G42A U43C U72C U78C | 0.07 |
| C12U A21G U48A U49A U74C | 0.93 |
| A13G C14A U31C | 0.86 |
| A13G G16U U41C U80A | 0.28 |
| A13G G33A A35G C40U | 0.1 |
| A13G A28U A35C A47U U80C | 0.18 |
| A13G G30C C44A U58C | 0.08 |
| A13G C23U U69C U78C | 0.4 |
| A13G A15U A35G A56U U72A | 0.24 |
| A13G A18G U31G | 0.2 |
| A13G C40U A64G | 0.29 |
| A13G C29U U31C C38A U43C A64G | 0.07 |
| A13G A20G U54C A57G U69C | 0.22 |
| A13G A18U A21G G30A | 0.07 |
| A13G G24A U25C U41C U49C | 0.15 |
| A13G A45U U67C A77G C81A | 0.2 |

| Variant | self-cleavage |
| --- | --- |
| A13G C23G U26A G30U U48C C59U U60C | 0.06 |
| A13G A18U A57U U60C | 0.13 |
| A13G A28U C29A U31A U72C A77G | 0.18 |
| A13G A18U U26A U54A A56U | 0.21 |
| C12U U26C A47G | 0.69 |
| A13G A15G A45U | 0.07 |
| A13G A28U U78C | 0.57 |
| A13C C17U U25C U41A U80C | 0.27 |
| A13G A18U G55U U58A U67A | 0.18 |
| A13G A20G A45G U67G | 0.41 |
| A13G U25A C40U A65G U67C U72C | 0.06 |
| A13G A15G U26A U69A | 0.04 |
| A13G U25C A28G C50U | 0.04 |
| A13C A15G C17G A21G U78C | 0.11 |
| A13G C23A U41C U58C G63C U72C | 0.05 |
| A13G A28G U67C | 0.14 |
| A13G G24A A35G | 0.11 |
| A13G A15G A35U U41A U80C | 0.29 |
| A13G A21G A45G U49G U67C | 0 |
| A13G G16A A20G U43C | 0.27 |
| A13G G36A C68G A75G U78C | 0.03 |

| Variant | self-cleavage |
| --- | --- |
| A13G A15U A57G | 0.42 |
| A13G A20G U43A A56G U66C U69G | 0.2 |
| A13G G33U U41A | 0.2 |
| A13C G33U A35U A64G U72A A75U | 0.05 |
| A13G A35G U69A | 0.47 |
| A13G A20G U26C U41A | 0.59 |
| A13G A20G C32U C37U G73A | 0.6 |
| C12U A56G U80C | 1.18 |
| A13G A56U U69C | 0.13 |
| A13G A56G U69G | 0.44 |
| C12U U25A U49G | 0.17 |
| A13G C17G U41C | 0.46 |
| A13G A56G G61A | 0.18 |
| A13G A15G A18U U25C U78C | 0.12 |
| A13G A28G C37G C59A | 0.15 |
| C12U A20G U49A U51A A77U | 0.47 |
| A13G A45U U51C | 0.21 |
| A13G A15G U41C | 0.11 |
| A13G A57G U58C A75U | 0.17 |
| A13G A15G C38G U69G | 0.09 |
| C12U U43C A57G U67A | 0.2 |

| Variant | self-cleavage |
| --- | --- |
| A13C C39G A45U | 0.2 |
| A13C A28G U78C | 0.68 |
| A13C A18U U41C U72C | 0.19 |
| A13C A15G A20G U54C | 0.73 |
| A13C U25C A45G U54G A65G U66C U76C | 0.06 |
| C12U U25C U48A | 0.25 |
| A13G A18G A21G G24A A57G A65G | 0.22 |
| A13G C32U C38U | 0.17 |
| A13G C39U U58C | 0.41 |
| A13G A20G U26A U31C A35U U74A U78C | 0.08 |
| A13G A57G U66C | 0.29 |
| A13G G63A U69C A77G C79U | 0.22 |
| A13G A18U C37A U49C U72C U80C | 0.06 |
| C12U U51G A64G | 1.24 |
| A13G A18U G33A | 0.16 |
| A13C U58C A65U U76C | 0.06 |
| C12U A21U A65G | 0.4 |
| A13G A35U U72C U80C | 0.68 |
| A13G A18U A64G | 0.23 |
| A13G C40A U54C | 0.22 |
| A13G U25C U41C A45U U80A | 0.04 |
